# Source: the supplement of paper PMC4604168 (melanoma cell lines)
# This is one part of the list. Many values rest on one well or one pass, so single values are uncertain.
# Tested on: SkMel5
# Assay: cell count relative to DMSO control; melanoma cells; higher = more viable cells
# Conditions: library dose: low library concentration; 72 h
# 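Also: cell number obtained by counting DAPI-stained nuclei in high-throughput microscope images with image analysis software, screen run in 1,536-well plates.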
row,SMILES,cell count
1,"Cn1c(Nc2ccc(C(F)(F)F)cc2)nc2cc(Oc3ccnc(-c4ncc(C(F)(F)F)[nH]4)c3)ccc21 + CCCCCCCCCCCC1=C(O)C(=O)C=C(O)C1=O [Embelin] (first compound 0.08 µM, partner dose 1.2 µM)",78.8%
2,"O=C(CCCCCCC(=O)Nc1ccccc1)NO [vorinostat] + O=C(O)C(=O)Nc1sc2c(c1C(=O)O)CCNC2 [TCS401] (first compound 0.08 µM, partner dose 1.66667 µM)",89.5%
3,"O=C(CCCCCCC(=O)Nc1ccccc1)NO [vorinostat] + CCc1ccc(CCOc2ccc(CC3SC(=O)NC3=O)cc2)nc1 [pioglitazone] (first compound 0.08 µM, partner dose 2 µM)",93.8%
4,"C#Cc1cccc(Nc2ncnc3cc(OCCOC)c(OCCOC)cc23)c1 [erlotinib] + O=C(Nc1ccccc1)c1cc([N+](=O)[O-])ccc1Cl [GW9662] (first compound 0.8 µM, partner dose 2 µM)",83.3%
5,"C#Cc1cccc(Nc2ncnc3cc(OCCOC)c(OCCOC)cc23)c1 [erlotinib] + Oc1nc(-c2ccc(C(F)(F)F)cc2)nc2c1CSCC2 [XAV939] (first compound 0.8 µM, partner dose 2 µM)",94%
6,"COCC[n+]1c2c(n(Cc3cnccn3)c1C)C(=O)c1ccccc1C2=O + CCc1ccc(CCOc2ccc(CC3SC(=O)NC3=O)cc2)nc1 [pioglitazone] (first compound 0.0004 µM, partner dose 2 µM)",72.3%
